This is an account of results in PubChem BioAssay (NCI).

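Five compound concentrations were applied to cells in 96-well plates for 48 hours; endpoints were derived by simple linear interpolation of the resulting dose-response curve. GI50 is the concentration that inhibits growth by half. TGI is the concentration that stops growth completely.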

The test system of this assay is NCI-H322M lung. Description: NCI anticancer screen, dose series, 48 h.
As for `CCCc1nc(NC#N)nc(C(=O)NC23CC4CC(CC(C4)C2)C3)c1C`, the TGI is over 100 µM.

Consider `CCC1c2[nH]c3ccccc3c2C[C@H]2C(=O)NC(CCCCNC(=O)OC(C)(C)C)C(=O)N12` (stereo not given in full), for which the TGI is over 100 µM.

`CCC(CCN)(CCN)[N+](=O)[O-]` showed a TGI of over 100 µM.

On to `CS/C(=N\S(=O)(=O)c1cc(C)c(Cl)cc1Cl)NNc1cnc2ccccc2n1`, for which the TGI is over 100 µM.

As to `Cn1c(=O)cc(N=Nc2ccc(Cl)c(Cl)c2)[nH]c1=O`, the TGI was over 100 µM.

For `Cc1cc2cc3cc(C)c(N)cc3[n+](C)c2cc1N`, the GI50 was 3.01 µM and the TGI is 12.5 µM.

In the case of `CCC[CH2][Sn]1([CH2]CCC)[O]CC(CN2CCOCC2)[O]1` (stereo not given), the GI50 was 15.2 µM and the TGI was 28.6 µM.

As for `Oc1ccc(-c2cn3cc(Cl)sc3n2)cc1`, the GI50 was 21.4 µM and the TGI was found to be 70.5 µM.

As to `N#C/C(=C1C=C/C(=N\O)C(Cl)=C\1)c1ccccc1`, the GI50 is 10.5 µM and the TGI is over 100 µM.

As to `Cc1cc(C)c2nc3nc(C)cc(C)c3c(N)c2c1`, the GI50 is 3.66 µM and the TGI amounted to 24.9 µM.

Turning to `COc1cc2c(cc1OC)C1Cc3cc(OC)c(OC)cc3C(C2)O1`, the TGI is over 100 µM.

Turning to `Cc1sc(NC2=NC(=O)/C(=C\c3ccccc3)S2)nc1-c1nc(NC2=NC(=O)/C(=C\c3ccccc3)S2)sc1C`, the GI50 is 8.46 µM and the TGI worked out at 26.5 µM.

For the molecule `COc1cc([C@@H]2c3cc4c(cc3[C@@H](OC3OC5COC(C)OC5C(OC(=O)CN5CCN(C)CC5)C3OC(=O)CN3CCN(C)CC3)C3COC(=O)[C@@H]32)OCO4)cc(OC)c1OC(=O)CN1CCN(C)CC1` (stereo not given in full), the TGI was over 100 µM.

`C=C(Br)C(C)(Br)CCC(Br)C(C)(C)Br` (stereo not given) had a TGI of over 100 µM.

With `CCOC(=O)c1c(Cl)c2c(n1Cc1cccc(OC)c1)-c1oncc1CC2`, the GI50 is 3.53 µM and the TGI was over 100 µM.

On to `Cc1cn([C@H]2C[C@@H]3[C@@H](COC(CCl)N3O)O2)c(=O)[nH]c1=O` (stereo not given in full), for which the TGI is over 100 µM.

Regarding `C[C@H](N[C@H]1CCC[C@]1(O)C#Cc1ccc2c(c1)OCO2)c1ccccc1`, the TGI is over 25 µM.

In the case of `C=CC[C@@H]1/C=C(\C)C[C@H](C)C[C@H](OC)[C@H]2O[C@@](O)(C(=O)C(=O)N3CCCC[C@H]3C(=O)O[C@H](/C(C)=C/C3CC[C@@H](O)[C@H](OC)C3)[C@H](C)[C@@H](O)CC1=O)[C@H](C)C[C@@H]2OC` (stereo not given in full), the GI50 is 15.8 µM and the TGI turned out to be 31.9 µM.

The molecule `CC1=NC(C(C)C)C(=O)O1` (stereo not given) registered a TGI of over 100 µM.

As to `CCOC(=O)N/N=C(\Cc1ccc([N+](=O)[O-])cc1)OCC`, the TGI is over 100 µM.

Regarding `CCOC(=O)c1[nH]cc(C)c1-c1c[nH]c2ccccc12`, the TGI is over 100 µM.

As for `CCOC1(OCC)N=C(N)C2(C#N)C3(C(=O)N(C(C)C)N=C3C)C12C#N` (stereo not given), the TGI was over 100 µM.

`CCCCCCCCCCCCCCCCCC(=O)OCC(COC1OC(CS(=O)(=O)O)C(O)C(O)C1O)OC(=O)CCCCCCCCCCCCCCCCC` (stereo not given) came in with a TGI of over 100 µM.

Regarding `Clc1ccc(C2=NN[C@H](c3cn(-c4ccccc4)nc3-c3ccccc3)C2)cc1`, the GI50 is 5.41 µM and the TGI is over 100 µM.

Turning to `O=[N+]([O-])c1ccc(N/N=C(\c2ccccc2)c2ccccn2)nc1`, the TGI was determined as 27.3 µM.

In turn, `CCOC(=O)c1c[nH]cc1-c1cn(S(=O)(=O)c2ccccc2)cc1C` gave a TGI of over 100 µM.

Turning to `O=C1C(c2c(O)[nH]c3ccccc23)=Nc2ccc(Br)cc21`, the TGI is over 100 µM.

With `NC(=NCCN1CCCCCCC1)NO`, the TGI is over 100 µM.

Turning to `N#Cc1cc(N(CCCl)CCCl)c([N+](=O)[O-])cc1[N+](=O)[O-]`, the TGI was over 100 µM.

Consider `O=[N+]([O-])c1cc(-c2nnc(C34CC5CC(CC(C5)C3)C4)o2)cc([N+](=O)[O-])c1`, for which the TGI is over 100 µM.

On to `O=C(NCCNc1nccc(-c2c(-c3ccc(F)cc3)nc3sccn23)n1)c1ccccc1`, for which the GI50 was 10.7 µM and the TGI is 41.4 µM.

For `C/C=C1\CNC1C(=O)O` (stereo not given), the TGI is over 100 µM.

`CC1C2(C)OC(=N)C(C#N)(C(C)O2)C1(C#N)C#N` (stereo not given) gave a TGI of over 100 µM.

Molecule `NC(=O)CCC(NC(=O)Cc1ccccc1)C(=O)O` (stereo not given) (tested in a mixture with another compound) had a TGI of over 8130 µM.

As to `CC(C)(C)C1(O)C=C(O)C(=O)N1NC(=O)c1ccccc1Nc1ccccc1` (stereo not given), the TGI was over 100 µM.

The molecule `CNC(=O)NC(CCCCNC(=O)OCc1ccccc1)C(=O)OCc1ccccc1` (stereo not given) registered a TGI of over 100 µM.

Consider `COc1cc2c(cc1OC)-c1c(oc3cc(OC4OC(CO)C(O)C(O)C4O)c(OC)cc3c1=O)C(O)O2` (stereo not given), for which the TGI is over 100 µM.

`NC(=O)CCC(CCC(N)=O)(CCC(N)=O)[N+](=O)[O-]` came in with a TGI of over 100 µM.

The molecule `NCCCCN(CCCN)Cc1ccc2ccccc2c1` had a TGI of over 100 µM.

For the molecule `Cc1[nH]nc2ccc3nc(-c4ccc5[nH]ncc5c4)c4c(c3c12)CCCC4`, the GI50 was 1.31 µM and the TGI was determined as 12.4 µM.

As for `O=C(Cc1ccccc1)NC(c1ccc(Cl)cc1)c1c(O)ccc2ccccc12` (stereo not given), the GI50 is 3.54 µM and the TGI was determined as 14.4 µM.

Regarding `CC(C)[Si](OC1=C(c2ccccc2)C(NC(=O)/C=C/c2ccc([N+](=O)[O-])cc2)CCC1)(C(C)C)C(C)C` (stereo not given), the TGI is over 100 µM.

In turn, `Nc1ncnc2c1ncn2C1C=CC(COS(N)(=O)=O)C1` (stereo not given) displayed a TGI of over 100 µM.

The molecule `O=C1N=NC(=O)N1c1cc(C(F)(F)F)cc(C(F)(F)F)c1` gave a TGI of 27.4 µM.

Take `O=S(=O)(CCNCc1ccc(-c2ccc3ncnc(Nc4ccc(OCc5cccc(F)c5)c(Cl)c4)c3c2)o1)c1ccccc1`: the GI50 was over 18.4 µM and the TGI was over 25 µM.

The molecule `N#Cc1c(-c2cccc(Cl)c2)cc(-c2ccc(Cl)cc2)nc1N` gave a TGI of 75.1 µM.

`COc1ccc(C(=O)C(C(=O)C(=O)NC2C3CC4CC(C3)CC2C4)c2ccc(OC)cc2)cc1` (stereo not given) registered a TGI of over 100 µM.

In the case of `CC(C)[Si](OC1=C(C(=O)N(C)c2ccccc2Cl)CCCCC1)(C(C)C)C(C)C`, the TGI is over 100 µM.

For the molecule `CS(=O)(=O)c1ccc(Oc2cc(F)cc(C#N)c2)c2c1[C@H](O)C(F)(F)C2`, the GI50 is over 100 µM and the TGI is over 100 µM.

`CO/N=C(\C(=O)Nc1cncs1)c1csc(N)n1` yielded a TGI of over 10 µM.

`COC(=O)/C(=N\NC(=S)NN)C(C(=O)OC)C(=O)C(=O)Nc1cccc(C(F)(F)F)c1` (stereo not given) yielded a TGI of over 100 µM.

The molecule `CCC1CC(C)=CCN1S(=O)(=O)c1ccc(C)cc1` (stereo not given) had a TGI of over 100 µM.

Consider `N=c1n(Cc2ccccc2)c(N)cc(=O)n1Cc1ccccc1`, for which the GI50 is 3.42 µM and the TGI amounted to 11.2 µM.

With `O=C(O)CP(=O)(O)O`, the TGI is over 100 µM.

`CN(C)[C@H]1CC[C@H]2[C@@H]3CCC4C[C@@H](NC(=O)NC(Cc5ccccc5)c5nccs5)CC[C@]4(C)[C@H]3CC[C@]12C` (stereo not given in full) had a TGI of 3.24 µM.

With `COC(=O)c1cnn2c1ccc1ccccc12`, the TGI was over 100 µM.

With `CC(=O)NC1C(OC2C(CO)OC(OCC3OC(n4ccc(N)nc4=O)C(O)C3O)C(NC(C)=O)C2O)OC(CO)C(O)C1O` (stereo not given), the TGI is over 100 µM.

Regarding `NC(=O)NC1=NC(Cc2ccccc2)C(=O)N1Cc1ccccc1` (stereo not given), the TGI is over 100 µM.

`Cc1sc(Nc2ccccc2[N+](=O)[O-])c(C#N)c1C` showed a TGI of over 100 µM.

For the molecule `CSc1nc2c(c(=O)[nH]1)N=C(c1ccc(Cl)cc1)CC(c1ccccc1)N2` (stereo not given), the TGI came to 34.3 µM.

In turn, `CCC(c1ccc2cc(O)ccc2c1)C(C)(C)C(=O)O` (stereo not given) displayed a TGI of over 100 µM.

Consider `COC1=CC(c2ccc[nH]2)=N/C1=C\c1[nH]c(C)c(C(C)=O)c1C`, for which the GI50 was 9.76 µM and the TGI was over 100 µM.

Consider `Nc1ccc(-c2nc3ccccc3o2)cc1S`, for which the GI50 was 15.6 µM and the TGI is 47.2 µM.
